Assay results reported in paper PMC6919601, “Identification of Plasmodium dipeptidyl aminopeptidase allosteric inhibitors by high throughput screening” (PLoS ONE, 2019).
The campaign covered roughly 110,000 compounds. About 230 (0.21%) showed an effect of 50% or more. Some of the results follow.

biological target: DPAP1 (Plasmodium falciparum, UniProt Q8IIJ9); assay: primary screen, percent inhibition; read by cleavage of a fluorogenic dipeptide substrate; higher = more effect of the substance; parameters: species or system P. falciparum D10 trophozoite lysates; single well
Sequence (Q8IIJ9 whole entry, looked up): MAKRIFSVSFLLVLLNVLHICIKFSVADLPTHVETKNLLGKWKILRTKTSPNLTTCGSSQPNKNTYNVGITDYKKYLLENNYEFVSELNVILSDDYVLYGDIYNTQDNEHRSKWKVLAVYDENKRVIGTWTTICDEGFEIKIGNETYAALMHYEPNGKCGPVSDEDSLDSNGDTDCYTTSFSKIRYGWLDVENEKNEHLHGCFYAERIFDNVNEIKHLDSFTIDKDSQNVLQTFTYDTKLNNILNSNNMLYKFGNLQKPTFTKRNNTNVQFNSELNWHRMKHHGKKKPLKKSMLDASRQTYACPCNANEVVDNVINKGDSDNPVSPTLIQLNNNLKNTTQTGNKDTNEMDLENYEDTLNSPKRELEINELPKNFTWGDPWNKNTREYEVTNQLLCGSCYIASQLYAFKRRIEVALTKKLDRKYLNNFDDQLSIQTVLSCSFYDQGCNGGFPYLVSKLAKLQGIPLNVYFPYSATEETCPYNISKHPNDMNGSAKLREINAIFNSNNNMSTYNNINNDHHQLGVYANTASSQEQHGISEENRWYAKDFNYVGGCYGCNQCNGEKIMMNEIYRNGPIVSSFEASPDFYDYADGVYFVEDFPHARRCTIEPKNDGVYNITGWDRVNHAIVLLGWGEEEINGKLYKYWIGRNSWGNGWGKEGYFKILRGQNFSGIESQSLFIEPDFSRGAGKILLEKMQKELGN
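Further: 30 min substrate incubation versus DMSO and 10 µM JCP410 controls.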

Structure (SMILES) | % Inhibition @ 10 uM
CC1CCCC(C)N1CCNC(=O)c1cc2ccc3cccnc3c2[nH]1 (stereo not drawn) | 4.44%
Cc1ccc(CC(=O)N2CCC(c3nc(O)c4nnn(Cc5ccccc5)c4n3)CC2)cc1 | -0.551%
C=CCn1c(=N)c(C(=O)NCc2ccccc2)cc2c(=O)n3ccccc3nc21 | 0.279%
N=Cc1cc(-c2ccccc2)oc1S | 36.3%
COc1cc(/C=C2\SC(=O)N(CC(=O)Nc3ccc(C)cc3)C2=O)ccc1O | 1.52%
Cc1ccc2c(c1)-c1c(cnn1CC(=O)N1CCN(Cc3ccccc3)CC1)CO2 | -0.563%
Cc1c(Cl)cccc1NC(=O)c1ccc(Cl)cc1 | -5.65%
CSCCC1Oc2ccccc2C2CC(c3ccccc3O)=NN12 (stereo not drawn) | 3.39%
CCOC(=O)C1=CN(C(C)C)C=C(C(=O)OCC)C1c1ccccc1OC(C)C | -1.48%
Nc1ccc2nc(SCC(=O)Nc3ccccc3C(F)(F)F)sc2c1 | -0.99%
COc1ccccc1CNC(=O)C1CCCN(c2ncnc3onc(-c4ccc(F)cc4)c23)C1 (stereo not drawn) | -2.53%
COc1ccc(C2C(C#N)=C(N)OC3=C2C(=O)CC(C)(C)C3)cc1OC (stereo not drawn) | 4.08%
COc1ccc(CCn2c(=O)[nH]c3ncccc3c2=O)cc1OC | 3.32%
Nc1nonc1-c1nc2ccccc2n1CC(=O)NCCC1=CCCCC1 | -1.11%
O=C1CC(c2ccccc2)CC(=O)C1=CNCCN1CCNCC1 (stereo not drawn) | 2.18%
Cc1ccccc1CS(=O)(=O)C[C@H](NC(=O)N1CCOCC1)C(=O)NC(C)CN(C)C (stereo partly drawn) | 1.15%
COc1ccc(CCC(C)NCCN2CCCCC2)cc1 (stereo not drawn) | 2.1%
CCn1cc(CN(C)C(=O)Nc2ccc(Cl)cc2)cn1 | 9.62%
COc1ccc(C2C(C#N)=C(N)Oc3c2c(=O)n(C)c(=O)n3C)c(OC)c1OC (stereo not drawn) | -7.42%
CCC(C(=O)NCc1ccccc1)n1nc(C)c2c(C)n(-c3ccccc3)nc2c1=O (stereo not drawn) | -6.36%
CCOCCCn1c(SCC(=O)NCC2CCCO2)nc2c(sc3ccccc32)c1=O (stereo not drawn) | 5.27%
O=C(Nc1ccccc1F)c1ccc(C(=O)Nc2ccccc2F)cc1 | 5.24%
Cn1c(NC(=O)C2c3ccccc3Oc3ccccc32)cc(=O)n(C)c1=O | -3.03%
CCC(=O)/N=C1\SC2CS(=O)(=O)CC2N1C(C)c1ccccc1 (stereo not drawn) | -1.15%
CC(C)c1ccc(/C=C2\C(=N)N3N=C(N4CCOCC4)SC3=NC2=O)cc1 | -1.66%
COCCOC(=O)C1=C(C)NC(=O)CC1c1ccccc1Cl (stereo not drawn) | 5.94%
Cc1cc(NC(=O)c2ccc(Br)o2)no1 | -8.86%
